Some of the results follow. Viral Rep nickase domains cut single-stranded DNA in vitro (1 h at 37 °C, 3 µM enzyme); the outer parts of the 90-letter strands are left off. A value is the log2 ratio of uncut reads to the pool without enzyme; more negative means more cut, near 0 not cut, and no call is made. Because reads are shares of a total, they shift together; where an enzyme cuts many sequences, the uncut ones exceed 0.
Experiments:
Assay in all cases: uncleaved DNA left, log2 of reads against the no-enzyme library (log2 ratio); higher = less cleavage (more negative = more Rep cleavage of the k-mer); sequences stand for … in CTCGTCCG…ACCGGAGA
[1] = system: T1, Rep nickase domain of Muscovy duck circovirus
T1 sequence (residues 1-111 of Rep, tag left off): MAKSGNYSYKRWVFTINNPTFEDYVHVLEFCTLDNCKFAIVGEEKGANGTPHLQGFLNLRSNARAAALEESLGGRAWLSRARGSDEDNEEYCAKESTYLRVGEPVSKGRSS
Protocol: (§1)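 A pool of 90-nt single-stranded DNAs with seven random bases just before the constant AC of the nick site (name = the seven bases) was cut by 3 µM recombinant His6-SUMO-tagged Rep nickase domain (300 nM DNA, 50 mM HEPES pH 8.0, 50 mM NaCl, 1 mM MnCl2, 1 h, 37 °C, three replicates). Uncut DNA was amplified and sequenced.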

[2] = system: T2, Rep nickase domain of banana bunchy top virus
T2 sequence (residues 1-94 of Rep, tag left off): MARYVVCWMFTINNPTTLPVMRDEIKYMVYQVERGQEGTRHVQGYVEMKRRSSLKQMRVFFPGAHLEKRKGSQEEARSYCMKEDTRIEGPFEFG
Protocol: as §1

[3] = system: T3, Rep nickase domain of cabbage leaf curl virus
T3 sequence (residues 1-116 of Rep, tag left off): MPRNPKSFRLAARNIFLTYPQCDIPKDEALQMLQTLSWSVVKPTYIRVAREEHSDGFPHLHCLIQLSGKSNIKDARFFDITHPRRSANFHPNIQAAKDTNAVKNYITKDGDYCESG
Protocol: as §1

[4] = system: T4, Rep nickase domain of chickpea chlorotic dwarf virus
T4 sequence (residues 1-124 of Rep, tag left off): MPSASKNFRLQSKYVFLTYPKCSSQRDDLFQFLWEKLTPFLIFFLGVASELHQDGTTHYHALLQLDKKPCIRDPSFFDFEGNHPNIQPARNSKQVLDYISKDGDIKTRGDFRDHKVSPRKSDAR
Protocol: as §1

[5] = system: T5, Rep nickase domain of faba bean necrotic yellows virus
T5 sequence (residues 1-98 of Rep, tag left off): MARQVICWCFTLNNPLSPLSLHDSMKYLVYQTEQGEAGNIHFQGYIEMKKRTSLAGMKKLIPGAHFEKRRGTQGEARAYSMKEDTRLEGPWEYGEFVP
Protocol: as §1

[6] = system: T6, Rep nickase domain of maize striate mosaic virus
T6 sequence (residues 1-117 of Rep, tag left off): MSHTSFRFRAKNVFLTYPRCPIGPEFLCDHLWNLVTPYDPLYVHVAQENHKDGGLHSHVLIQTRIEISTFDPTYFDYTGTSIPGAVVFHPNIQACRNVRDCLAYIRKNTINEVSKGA
Protocol: as §1

[7] = system: T7, Rep nickase domain of porcine circovirus 2
T7 sequence (residues 2-116 of Rep, tag left off): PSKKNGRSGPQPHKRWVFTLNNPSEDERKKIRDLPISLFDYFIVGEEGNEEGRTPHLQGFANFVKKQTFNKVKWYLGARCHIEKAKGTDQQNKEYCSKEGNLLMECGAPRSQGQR
Protocol: as §1

[8] = system: T8, Rep nickase domain of tomato golden mosaic virus
T8 sequence (residues 1-124 of Rep, tag left off): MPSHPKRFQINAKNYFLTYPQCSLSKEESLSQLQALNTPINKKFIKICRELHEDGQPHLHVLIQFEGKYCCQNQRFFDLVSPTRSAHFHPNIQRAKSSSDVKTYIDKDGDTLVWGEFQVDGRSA
Protocol: as §1

[9] = system: T9, Rep nickase domain of tomato yellow leaf curl virus
T9 sequence (residues 1-136 of Rep, tag left off): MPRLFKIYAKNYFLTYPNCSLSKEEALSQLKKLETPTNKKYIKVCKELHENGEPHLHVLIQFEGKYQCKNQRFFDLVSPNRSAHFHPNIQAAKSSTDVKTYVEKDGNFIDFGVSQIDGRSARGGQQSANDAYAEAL
Protocol: as §1

[10] = system: T10, Rep nickase domain of wheat dwarf virus
T10 sequence (residues 1-137 of Rep, tag left off): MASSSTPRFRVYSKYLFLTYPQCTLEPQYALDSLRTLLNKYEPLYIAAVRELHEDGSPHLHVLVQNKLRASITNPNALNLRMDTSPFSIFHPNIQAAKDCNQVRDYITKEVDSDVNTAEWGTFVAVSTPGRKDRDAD
Protocol: as §1

Sequence | uncleaved DNA left (log2) [1] | uncleaved DNA left (log2) [2] | uncleaved DNA left (log2) [3] | uncleaved DNA left (log2) [4] | uncleaved DNA left (log2) [5] | uncleaved DNA left (log2) [6] | uncleaved DNA left (log2) [7] | uncleaved DNA left (log2) [8] | uncleaved DNA left (log2) [9] | uncleaved DNA left (log2) [10]
AGTACCT | -0.0827 | -0.152 | 0.0967 | -0.616 | -0.187 | 0.691 | -3.31 | -0.104 | 0.0147 | 0.036
GCTACGT | -0.0199 | 0.00923 | 0.191 | 0.302 | -0.0136 | 0.179 | -0.0187 | 0.00109 | 0.036 | 0.0179
TCTACAC | 0.0684 | 0.0575 | 0.0964 | -1.58 | 0.0289 | -0.283 | 0.0476 | 0.0524 | -0.0149 | 0.02
TCGAAAC | 0.022 | -0.0792 | 0.0977 | -0.482 | 0.0892 | -0.534 | 0.0399 | -0.00944 | 0.0824 | -0.0432
CCGTGTG | -0.109 | -0.101 | -0.621 | -0.179 | -0.153 | -0.535 | 0.0335 | 0.0427 | 0.0428 | -0.195
CCGTTCT | -1 | -0.145 | 0.00716 | -1.63 | -0.054 | -0.539 | -2.65 | -0.0839 | 0.0756 | -0.259
CTCGGAT | 0.0247 | -0.0527 | 0.215 | 1.38 | 0.1 | 1.82 | 0.0681 | 0.094 | -0.148 | -0.127
GCACTTG | -0.0698 | -0.00513 | -0.408 | -0.47 | -0.00205 | -0.773 | 0.0632 | -0.189 | -0.0557 | -0.182
AGGCTTC | -0.104 | -0.0352 | 0.31 | 0.364 | -0.0937 | 0.38 | -0.0246 | -0.0826 | -0.0244 | -0.138
GGAATTC | 0.0446 | 0.0207 | 0.626 | 1.59 | -0.0174 | 1.94 | 0.084 | -0.0285 | 0.0932 | 0.122
GTATTCG | -0.0447 | 0.0694 | -0.723 | -0.429 | 0.0534 | -0.805 | 0.11 | -0.0692 | 0.0712 | 0.00517
CGAACGT | 0.029 | 0.0294 | 0.0606 | 0.126 | 0.00138 | 0.159 | 0.00314 | -0.0857 | -0.112 | -0.0184
GGCATGT | 0.0315 | 0.0239 | 0.518 | 1.35 | 0.0306 | 1.97 | 0.0912 | -0.0133 | 0.0709 | 0.0941
GCTCATT | 0.0644 | 0.08 | 0.288 | 0.134 | 0.077 | 0.704 | -0.352 | -0.0558 | 0.201 | 0.151
GTGTGTA | 0.0731 | 0.112 | 0.292 | 0.864 | 0.00986 | 1.68 | 0.0229 | 0.166 | 0.166 | 0.0849
ACTCGAG | -0.101 | -0.044 | -0.304 | 0.382 | -0.0399 | -0.835 | 0.00995 | -0.109 | -0.000531 | 0.0158
TTGAAGG | 0.0263 | 0.00646 | 0.466 | 1.23 | 0.0266 | 1.26 | 0.127 | 0.0436 | -0.181 | 0.0243
TATCGGC | 0.0599 | -0.0655 | 0.0484 | -0.0165 | -0.101 | -0.526 | -0.0127 | 0.0546 | 0.0322 | -0.00936
AATTTTT | -3.57 | -3.79 | -2.11 | -3.05 | -0.665 | -0.917 | -3.94 | -0.796 | -0.0976 | -0.812
CGCGTAT | 0.0229 | -0.115 | -0.114 | -0.432 | -0.0446 | -0.409 | -0.243 | -0.114 | -0.0264 | -0.0198
AAAAGAC | 0.0437 | 0.00402 | 0.147 | 0.38 | -0.0392 | -0.208 | 0.0804 | 0.0897 | -0.0435 | -0.0319
GCTGCAT | -0.00918 | 0.0422 | 0.0385 | 0.591 | -0.0803 | 0.36 | -0.0686 | -0.0265 | -0.062 | -0.00986
TGTTACA | -0.431 | -0.0879 | -2.38 | -1.98 | -0.186 | 0.191 | -2.97 | -1.94 | 0.0921 | -2.01
TGTGTAC | 0.0434 | 0.00335 | 0.323 | 0.68 | -0.0586 | 1.54 | 0.0776 | 0.0856 | 0.0754 | 0.0659
GGTGTGA | 0.248 | 0.135 | 0.37 | 0.936 | 0.0539 | 1.19 | 0.248 | 0.124 | 0.122 | 0.148
GCTTAAT | -0.804 | 0.0124 | 0.0943 | 0.155 | -0.0259 | 0.496 | -2.48 | -0.00645 | -0.0244 | 0.0183
TTTACTC | -0.05 | -0.0611 | 0.0668 | -2.03 | -0.0797 | -0.161 | -0.0355 | -0.0973 | -0.0333 | -0.0678
ACCTTTA | -0.132 | 0.0644 | -0.287 | -1.62 | -0.00695 | -0.815 | -0.243 | 0.00606 | -0.192 | -0.0935
ATATGGC | -0.103 | -0.0259 | -0.412 | -0.634 | 0.0687 | -1.1 | 0.0755 | -0.00278 | 0.0849 | -0.119
AGATAGT | -2.82 | -0.0508 | -0.317 | -1.08 | -0.0288 | -0.643 | -3.44 | 0.157 | 0.0613 | -0.418

Reference: the supplement of paper PMC7826260
